± gives the standard deviation of the averaged measurements. In all, about 4,100 sequences were measured (“relative kcat/Km (krel) vs genomic leader AAAGAU”: median about 1.7, highest 2% from about 6.5 on). This is a selection; strong and weak results do not stand in their true shares.
Target: T1, E. coli RNase P holoenzyme (M1 P RNA + rnpA protein) (UniProt P0A7Y8)
T1 sequence: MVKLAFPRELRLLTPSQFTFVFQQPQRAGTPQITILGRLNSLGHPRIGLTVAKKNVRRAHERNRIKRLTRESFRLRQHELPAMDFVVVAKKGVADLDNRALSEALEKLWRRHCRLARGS
Assay: relative kcat/Km (krel) vs genomic leader AAAGAU (relative (reference leader = 1)); higher = faster RNase P cleavage
In short: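 A precursor tRNA-Met pool randomized at leader positions −6 to −1 was cleaved by E. coli RNase P holoenzyme (P RNA plus C5 protein) under multiple-turnover conditions at 37 °C in 50 mM Tris-HCl pH 8, 100 mM NaCl, 17.5 mM MgCl2. Unreacted precursor was gel-purified at ~5–30% conversion, converted to cDNA libraries and Illumina-sequenced. Relative kcat/Km (krel) was calculated by internal competition kinetics from read ratios, normalised to the genomic leader, averaging two technical replicates.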

[1] = fraction of substrate reacted: ~9-10% (9.79% repeat 1, 9.1% repeat 2)
[2] = fraction of substrate reacted: ~13-16% (15.68% repeat 1, 13.17% repeat 2)
[3] = fraction of substrate reacted: ~26-29% (28.66% repeat 1, 26.4% repeat 2)

Sequence	relative kcat/Km [1]	relative kcat/Km [2]	relative kcat/Km [3]
GCCTCT	1.92 ± 0.21	1.99 ± 0.65	3.56 ± 1.4
ACGATG	–	1.64 ± 0.42	2.2 ± 0.16
ATTCCG	–	–	1.01 ± 0.26
TAAGTC	1.12 ± 0.53	1.2 ± 0.022	1.55 ± 0.57
TTTCAT	4.15 ± 1.4	5.11 ± 0.89	7.53 ± 3.4
ATGCCA	–	–	0.781 ± 0.74
CAGCAC	1.44 ± 0.45	1.95 ± 0.54	3.8 ± 0.91
GCATTA	0.689 ± 0.68	1.14 ± 0.2	1.64 ± 0.63
ATCTGT	–	1.3 ± 1.2	1.76 ± 1.5
CGAGGC	0.214 ± 0.16	0.405 ± 0.38	0.974 ± 0.58
CTGAAT	2.16 ± 0.24	2.25 ± 0.29	3.01 ± 0.25
AAGGCG	0.605 ± 0.13	0.438 ± 0.18	0.43 ± 0.023
GCACCC	–	–	1.92 ± 1.6
AATACA	1.91 ± 0.78	1.7 ± 0.041	2.02 ± 0.66
TCTTTC	2.38 ± 0.92	2.65 ± 1.3	3.46 ± 1.2
GTCGTA	2.55 ± 1.1	2.7 ± 0.23	3.88 ± 0.79
ATGTTA	1.74 ± 0.75	2.13 ± 0.6	2.8 ± 0.81
GAATAG	1.46 ± 0.94	1.08 ± 0.3	2.88 ± 1.1
AGAATC	2.63 ± 1.3	2.27 ± 0.42	2.61 ± 0.55
TTCAAG	2.98 ± 2.4	3.38 ± 0.47	5.77 ± 2
TATCCA	1.63 ± 0.78	1.64 ± 0.45	2.14 ± 0.7
ATCCAT	3.89 ± 0.97	4.72 ± 1.4	7.14 ± 3.2
GGCGCA	1.73 ± 0.44	2 ± 1.2	3.02 ± 1.3
ATGGAG	–	–	0.809 ± 0.47
ACAGCA	1.85 ± 1.1	1.22 ± 0.039	1.4 ± 0.034
AGCATG	0.917 ± 0.78	–	1.29 ± 0.051

Sequence	relative kcat/Km [1]	relative kcat/Km [2]	relative kcat/Km [3]
TTTTGC	3.65 ± 1.3	4.42 ± 1.1	6.61 ± 2.8
AAAATT	2.26 ± 1.2	1.53 ± 0.063	1.82 ± 0.3
ATGCCC	1.56 ± 0.57	0.97 ± 0.076	1.42 ± 0.2
GCGCCC	1.08 ± 0.69	1.12 ± 0.58	1.57 ± 0.31
CATTTC	2.59 ± 0.64	2.31 ± 0.88	4.06 ± 1.9
CCGCTA	0.931 ± 0.051	1.43 ± 0.35	1.19 ± 0.28
ATACCT	1.52 ± 0.97	1.67 ± 0.38	2.07 ± 1.1
GTTCCC	2.21 ± 1.7	1.92 ± 0.23	2.29 ± 0.42
CGGCGC	1.53 ± 0.046	1.27 ± 0.53	1.42 ± 0.12
CCTATT	1.95 ± 0.33	2.2 ± 0.23	2.65 ± 0.78
GGCCTT	1.87 ± 0.27	2.27 ± 0.52	2.46 ± 0.65
TCTATC	2.25 ± 0.66	2.61 ± 0.13	3.31 ± 1.3
ACCCGG	0.242 ± 0.034	–	–
GGAGTC	1.02 ± 0.45	0.6748 ± 0.0035	1.1 ± 0.081
CTGTTA	2.76 ± 1.4	1.44 ± 1.1	2.19 ± 0.06
CGACAC	1.85 ± 0.28	2.88 ± 0.2	4.4 ± 1.3
TCACTT	1.9 ± 0.32	2.82 ± 0.93	3.13 ± 1
TAGCAT	2.34 ± 0.67	2.96 ± 0.51	4.57 ± 1.4
GTGGGT	–	–	1.82 ± 1.2
TGTAGC	2.67 ± 1.2	2.86 ± 0.29	4.77 ± 2.2
AAGTGA	1.39 ± 0.31	1.75 ± 0.17	2.17 ± 0.18
TAGCCG	–	–	1.05 ± 0.32
GACCAC	2.53 ± 1.4	3.51 ± 0.65	5.22 ± 1.2
AATTCT	1.82 ± 0.34	2.71 ± 0.24	3.32 ± 1.4
CGGGCT	1.64 ± 0.38	–	0.723 ± 0.33
TTTTCG	–	0.675 ± 0.51	1.74 ± 0.13

Sequence	relative kcat/Km [1]	relative kcat/Km [2]	relative kcat/Km [3]
CCAAGT	1.25 ± 0.78	0.657 ± 0.038	–
ATAAAT	1.89 ± 0.56	2.35 ± 0.23	2.97 ± 1.1
CGGTTA	–	0.699 ± 0.1	0.639 ± 0.093
CGCTTT	2.41 ± 0.032	3.39 ± 1.4	4.89 ± 1.9
TCCGAA	5.05 ± 1.9	6.23 ± 1.9	9.05 ± 3.9
GCACCA	0.66 ± 0.35	–	0.801 ± 0.14
CCGATC	1.48 ± 0.57	1.14 ± 0.48	1.96 ± 0.31
GGAAGC	1.73 ± 0.69	1.38 ± 0.91	2.587 ± 0.025
CACTAC	4.63 ± 0.25	6.82 ± 2.5	8.23 ± 3.5
TCAAAT	2.26 ± 0.96	2.1 ± 0.13	2.86 ± 0.78
ACAATC	1.33 ± 0.61	2.25 ± 0.4	2.41 ± 0.74
ATAGTA	1.68 ± 0.35	1.78 ± 0.51	1.88 ± 1
GTTAAT	2.98 ± 0.76	3.77 ± 0.95	5.2 ± 2.3
TGGGGG	–	–	1.4 ± 1.3
AGGAGG	–	–	1.05 ± 0.058
AGCTGA	1.24 ± 0.13	1.3 ± 0.083	3.06 ± 1.6
AGCATT	1.76 ± 0.31	2.58 ± 0.046	3.56 ± 1.5
CCCCAG	0.952 ± 0.62	0.951 ± 0.43	2.51 ± 0.072
TATGTA	1.25 ± 0.51	1.07 ± 0.38	2.04 ± 0.57
CTGTTC	2.19 ± 0.66	2.04 ± 0.062	2.45 ± 0.29
GACCTC	2.41 ± 0.81	2.49 ± 0.041	3.63 ± 0.74
AGTAAC	2.95 ± 1.2	3.66 ± 0.26	5.6 ± 2.4
CGACCA	1.67 ± 0.099	1.37 ± 0.59	1.55 ± 0.46
ATCATG	–	1.92 ± 0.8	3.1 ± 0.61
GTAAGA	3.03 ± 2.2	2.71 ± 0.77	3.58 ± 0.33
GAGACA	0.931 ± 0.17	1.11 ± 0.3	1.63 ± 0.39

Sequence	relative kcat/Km [1]	relative kcat/Km [2]	relative kcat/Km [3]
CGTGCA	0.898 ± 0.71	1.43 ± 0.72	1.57 ± 0.55
ACACCA	1.49 ± 1.4	1.51 ± 0.16	1.3 ± 0.2
TGTGAC	2.05 ± 0.71	2.7 ± 0.56	3.24 ± 1.1
CCTATC	1.89 ± 0.98	2.43 ± 0.11	2.74 ± 0.88
CCATCC	3.11 ± 1	2.25 ± 0.14	3.75 ± 0.9
ATATAT	3 ± 0.9	4.49 ± 0.51	–
GGATTG	–	0.596 ± 0.058	0.73 ± 0.62
GAGTCT	1.46 ± 0.081	2.35 ± 0.1	2.66 ± 0.65
TAGTCA	2 ± 1	2.4 ± 0.28	3.09 ± 0.91
CCAACC	–	1.11 ± 0.49	1.3 ± 0.39
ACCTTA	3.48 ± 1.9	3.04 ± 0.036	4.62 ± 1.8
TTAAGC	2.38 ± 1.3	2.41 ± 0.11	3.2 ± 1.2
CATCTT	1.77 ± 0.57	2.05 ± 0.29	3.7 ± 1.5
CCCATA	2.83 ± 1.3	3.03 ± 0.6	4.43 ± 1.7
GATTCC	2.17 ± 0.93	2.13 ± 0.22	2.93 ± 0.71
GTGGCC	0.764 ± 0.16	0.924 ± 0.51	–
ACCGCC	2.87 ± 1.1	2.93 ± 0.072	4.69 ± 1
TACTTA	3.1 ± 0.66	4.1 ± 0.88	5.63 ± 2.6
CCCCGC	2.14 ± 1.4	2.8 ± 0.83	4.54 ± 1.6
TGACAA	3.11 ± 2.1	3.72 ± 0.47	4.23 ± 1.4
CGTTTG	1.08 ± 0.88	–	1.88 ± 0.24
TGCTGG	0.26 ± 0.16	–	0.292 ± 0.1
TACATT	3.85 ± 1.4	5.11 ± 0.79	7.56 ± 3.7
CGGGTA	–	–	0.95 ± 0.89
GGTTTC	1.08 ± 0.39	1.01 ± 0.41	1.32 ± 0.084
CCTCTA	1.15 ± 0.22	1.13 ± 0.42	1.49 ± 0.084

Sequence	relative kcat/Km [1]	relative kcat/Km [2]	relative kcat/Km [3]
TCTAGA	2.83 ± 0.24	3.36 ± 0.14	4.61 ± 1.9
GTTCCT	2.61 ± 0.67	2.55 ± 0.21	3.41 ± 1.4
AGCGTC	2.03 ± 0.35	1.43 ± 0.14	1.79 ± 0.62
CGCGCG	1.98 ± 1.4	1.14 ± 0.35	1.59 ± 0.48
TTTCTC	2.12 ± 0.99	2.29 ± 0.41	2.91 ± 0.93
AGTACG	–	–	1.87 ± 0.11
ATTATT	2.11 ± 1.1	2.59 ± 0.18	3.61 ± 1.5
CAGATA	–	1.09 ± 0.29	1.32 ± 0.13
ATCACG	1.99 ± 1.5	1.4 ± 0.23	2.97 ± 0.3
CACTTT	3.33 ± 1.1	4.55 ± 0.76	6.22 ± 2.4
GGTACT	1.06 ± 0.27	1.48 ± 0.13	2.24 ± 0.87
GCCTTC	3 ± 0.21	4.03 ± 2.2	5.81 ± 3.1
GGGTGG	–	–	0.703 ± 0.6
CCGTGG	–	–	0.516 ± 0.37
ACATGA	2.27 ± 0.64	2.54 ± 0.94	4.25 ± 2
GCTTGT	–	1.19 ± 1	1.81 ± 1.6
ATTCAG	–	0.859 ± 0.06	2.48 ± 0.15
ACTAAC	1.48 ± 0.31	1.42 ± 0.44	2.32 ± 0.65
CAAACG	–	0.172 ± 0.13	0.797 ± 0.69
AGCTAC	1.27 ± 0.29	3.3102 ± 0.0027	4.78 ± 1.9
GTAGAA	2.15 ± 0.51	1.7 ± 0.13	3.06 ± 0.87
ATGTGC	0.846 ± 0.63	1.12 ± 0.55	1.28 ± 0.43
TCCCTT	3.55 ± 1.3	4.28 ± 1	5.52 ± 2
CATATC	1.64 ± 0.55	1.99 ± 0.036	2.93 ± 1.2
ATAGGT	–	–	2.15 ± 1.4
GAACTC	1.6 ± 0.92	1.71 ± 1.1	1.8 ± 0.52

— the supplement of paper PMC9433436
